Laboratory results taken from paper PMC4336329 (PLoS ONE, 2015).
Out of some 310,000 compounds screened, about 2,200 (0.71%) showed an effect of 50% or more. Effects have a minus sign here. Some of the results follow.

Molecular target: human ether-à-go-go-related gene (hERG) potassium channel (human, UniProt Q12809)
Assay: primary screen, population patch clamp on CHO cells stably expressing hERG

human ether-à-go-go-related gene (hERG) potassium channel, sequence (Q12809 whole entry, looked up): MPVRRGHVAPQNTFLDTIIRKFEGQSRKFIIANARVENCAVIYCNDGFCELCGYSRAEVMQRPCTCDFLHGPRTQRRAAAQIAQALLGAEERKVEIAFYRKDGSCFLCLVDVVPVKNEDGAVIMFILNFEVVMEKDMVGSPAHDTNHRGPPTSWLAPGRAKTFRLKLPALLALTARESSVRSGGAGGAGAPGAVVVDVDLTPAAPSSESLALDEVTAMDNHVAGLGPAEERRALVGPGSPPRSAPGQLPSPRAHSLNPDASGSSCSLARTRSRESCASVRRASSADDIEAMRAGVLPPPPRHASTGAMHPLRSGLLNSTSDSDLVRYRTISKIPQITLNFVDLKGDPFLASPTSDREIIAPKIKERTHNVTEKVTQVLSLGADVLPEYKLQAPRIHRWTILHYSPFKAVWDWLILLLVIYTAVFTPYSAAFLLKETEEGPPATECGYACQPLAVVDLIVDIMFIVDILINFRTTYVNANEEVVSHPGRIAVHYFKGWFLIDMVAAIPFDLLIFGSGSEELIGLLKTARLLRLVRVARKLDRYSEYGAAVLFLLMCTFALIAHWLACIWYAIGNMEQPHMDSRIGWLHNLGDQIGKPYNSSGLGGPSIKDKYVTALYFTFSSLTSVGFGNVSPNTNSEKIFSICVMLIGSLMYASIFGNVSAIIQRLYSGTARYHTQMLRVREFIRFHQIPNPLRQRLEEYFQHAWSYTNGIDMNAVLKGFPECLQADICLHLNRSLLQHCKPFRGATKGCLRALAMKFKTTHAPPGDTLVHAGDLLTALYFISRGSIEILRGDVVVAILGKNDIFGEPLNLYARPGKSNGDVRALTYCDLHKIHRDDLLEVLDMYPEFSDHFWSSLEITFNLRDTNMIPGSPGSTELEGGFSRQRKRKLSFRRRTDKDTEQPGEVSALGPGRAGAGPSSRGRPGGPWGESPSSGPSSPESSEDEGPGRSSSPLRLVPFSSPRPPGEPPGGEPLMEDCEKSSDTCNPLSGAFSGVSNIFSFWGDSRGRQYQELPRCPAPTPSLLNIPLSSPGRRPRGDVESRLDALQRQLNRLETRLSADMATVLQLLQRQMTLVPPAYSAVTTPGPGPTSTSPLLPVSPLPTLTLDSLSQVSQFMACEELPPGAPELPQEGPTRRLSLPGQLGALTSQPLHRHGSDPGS

Compound | hERG current change (%, negative = inhibition) at 1uM
CCOC(=O)N1CCN(c2cc(N)c([N+](=O)[O-])cc2F)CC1 | 0.288%
COc1ccc(NC(=O)C(c2cc3c(cc2[N+](=O)[O-])OCO3)N(C)C)cc1 (stereo not shown) | 0.793%
O=[N+]([O-])c1ccc(CSc2ccc(S(=O)(=O)N3CCCC3)cn2)cc1 | -3.77%
O=C1CC(C(=O)N(c2ccc(F)cc2)C(C(=O)NC2CCCC2)c2ccccn2)CS1 (stereo not shown) | 3.1%
Cc1cc(C)nc(/N=C2\NC(=O)CC(C(=O)O)N2c2ccc(C)c(C)c2)n1 (stereo not shown) | 11.7%
O=C(CNc1cccc(S(=O)(=O)N2CCCC2)c1)Nc1cccc(F)c1 | -2.43%
O=C(CCl)N1CCN(S(=O)(=O)c2ccc3ccccc3c2)CC1 | 7.26%
Cc1ccc(C(=O)OCC(=O)N2CCC(Cc3ccccc3)CC2)cc1N | 10.6%
O=C(CSc1nncn1-c1ccccc1)Nc1ccccc1F | 12.3%
O=C1CC(c2ccccc2)C(C(=O)Nc2ccccc2F)N1 (stereo not shown) | 10.6%
Cc1ccccc1OCC(=O)NCCc1nc2ccccc2[nH]1 | -4.84%
Cc1ccc2c(CN(C)Cc3cccc(F)c3)cc(=O)oc2c1 | 5.95%
CC(C)(C)CC(C)(C)NCC(=O)Nc1c2c(nc3ccccc13)CCC2.O=C(O)C(=O)O | 6.56%
CCN1CCN(C(=O)C(C)Nc2cc(Cl)c(OC)cc2OC)CC1 (stereo not shown) | 17.8%
CN(C)c1ccc(NC(=O)CCCCCn2nnc3ccccc3c2=O)cc1 | 11.4%
c1csc(-c2noc(CN3CCc4sccc4C3)n2)c1 | 20%
CCn1c(-c2ccccc2)c[nH]c1=S | 11.2%
Cc1ccc(C(=O)NNC(=O)CCCN2C(=O)/C(=C/c3ccccc3Cl)SC2=S)cc1 | 10.4%
On1c(-c2ccco2)nc2c1CCc1nonc1-2 | 10.5%
CCOC(=O)C1CCC2(CC1)C(C#N)=C(N)Oc1n[nH]c(C)c12 (stereo not shown) | 9.18%
O=C(CSc1nc2ccccc2c(=O)[nH]1)Nc1ccc(C(=O)O)cc1 | 6.74%
COc1ccccc1NC(=O)COC(=O)c1cc2ccccc2cc1O | -1.33%
CCC(=O)Nc1nnc(SCC(=O)NCc2ccc3c(c2)OCO3)s1 | -3.86%

Compound | hERG current change (%, negative = inhibition) at 1uM
CC(C)NC(=O)c1ccccc1NC(=O)/C=C/c1cccc([N+](=O)[O-])c1 | 13.3%
COc1ccc(C(CC(=O)NCc2ccccc2)Sc2n[nH]c(-c3ccc(Cl)cc3)n2)cc1 (stereo not shown) | 7.3%
CCOC(=O)c1c(C)nc2ncccn12 | 2.38%
CCNC(=S)Nc1cccc([N+](=O)[O-])c1 | -5.89%
CCOc1cc(S(=O)(=O)NCc2ccccc2)ccc1F | 7.08%
O=c1c2ccccc2[nH]c(=S)n1CCCN1CCN(c2ccccc2)CC1 | 14%
CC(C)CC(=O)NC(=S)Nc1ccccc1F | 4.66%
Cc1cc(Cl)ccc1OCCCC(=O)OCC(=O)Nc1cccc(S(N)(=O)=O)c1 | -1.55%
Cc1ccc(NC(=O)CCc2c[nH]c3ccccc23)nc1 | 6.01%
O=C(Nc1ccccc1N1CCN(C(=O)c2ccccc2)CC1)c1ccc(Br)o1 | -26%
CCOCCCNC(=O)c1ccc(OC(C)=O)cc1 | 2.78%
O=c1[nH]nnc2sc3c(c12)CCCC3 | 1.46%
CN1C(=O)CSc2ccc(NC(=O)N3CCOCC3)cc21 | -1.98%
Cc1ccc(NC(=O)CSc2ccc(S(=O)(=O)N3CCCC3)cn2)cc1F | 14.5%
CCCCCCn1c(=O)c(F)cn(Cc2ccc(OC)c([N+](=O)[O-])c2)c1=O | -9.85%
COc1ccc(N2CCN(C(=O)Cn3ncc4c([nH]c5ccccc54)c3=O)CC2)cc1 | 11.7%
CCOc1ccc(NC(=O)c2sccc2-n2cccc2)cc1 | 15.8%
CCN(CC)C(=O)CSc1nc(-c2ccco2)cc(C(F)(F)F)c1C#N | 11.8%
Cc1cc(C)c(NC(=O)CSc2nc(COc3ccccc3)nc3ccccc23)c(C)c1 | 16.6%
C[C@H](O)[C@@]1(O)CC[C@H]2[C@@H]3CC[C@@H]4C[C@H](O)CC[C@]4(C)[C@H]3CC[C@@]21C | 0.717%
C[C@H](NC(=O)[C@H]1N2C(=O)c3ccccc3C2SC1(C)C)C(=O)N1CCCCC1 (stereo partly shown) | 27.9%
CN(C)S(=O)(=O)c1cccc(C(=O)OCC(=O)NC2CCCc3ccccc32)c1 (stereo not shown) | 2.42%
O=C(c1ccccn1)c1cc2ccccc2n1S(=O)(=O)c1ccccc1 | 15.9%

Compound | hERG current change (%, negative = inhibition) at 1uM
COc1ccc(C2=CC(=O)C[C@H](c3ccc(F)cc3)C2)c(F)c1F | 8.81%
CSC1=NCCN1C(=O)c1cccs1 | 12.1%
Cc1cc(NC(=O)COC(=O)CNS(=O)(=O)c2ccc(C)c(C)c2)no1 | 10.4%
COc1ccc(-c2nnn(Cc3ccccc3F)n2)cc1 | 20%
CCn1nc(NS(=O)(=O)c2ccccc2[N+](=O)[O-])c2cc3ccc(C)cc3nc21 | 12.2%
O=C(NCCc1cccs1)C1CC(c2cccc(F)c2)=NO1 (stereo not shown) | 9.94%
CN1C(=O)C(C2c3ccccc3C(=O)N2Cc2ccc([N+](=O)[O-])cc2)C(=O)N(C)C1=O (stereo not shown) | -3.66%
COc1ccc(NC(=O)C2CC(c3ccccc3Cl)=NO2)cc1 (stereo not shown) | 16.6%
Oc1ccccc1/C=N/c1c(-c2ccco2)nc2ccccn12 | 6.02%
Cc1ccc(NC(=S)N2CCCC2)cc1Cl | 10.9%
CCC(=O)N=c1sc2cc(F)cc(F)c2n1C | 9.86%
CCCCn1c(=O)c(C(=O)Nc2ccc(C)cn2)c(O)c2ccccc21 | 15.1%
C=CCn1c(SCC(=O)NC2CCS(=O)(=O)C2)nc2sc(CC)cc2c1=O (stereo not shown) | -15.6%
Cn1cc([N+](=O)[O-])c(C(=O)NNC(=O)c2ccc([N+](=O)[O-])cc2Cl)n1 | 11.1%
O=C(Nc1ccncc1)c1cccn(Cc2ccccc2)c1=O | -16.2%
Cc1nc2c3ccccc3n(CC(=O)c3ccc(F)cc3)c(=O)n2n1 | 5.17%
COc1ccc([N+](=O)[O-])cc1NC(=S)NC(C)=O | 5.45%
CCc1ccc(NC(=O)c2cnc3scc(C)n3c2=O)cc1 | 4.58%
CCCCCCC1NC(C(=O)O)CS1 (stereo not shown) | -9.13%
O=C(Nc1nc2ccccc2n1CCOc1ccc(Cl)cc1)c1ccco1 | 1.49%
CCn1c(CN2C(=O)CSc3ccccc32)n[nH]c1=S | 10.7%
CC(NC(=O)NNC(N)=S)(C(F)(F)F)C(F)(F)F | 5.83%
Cl.OC(c1ccccc1)(C1CCCCC1)C(CN1CCOCC1)c1ccccc1 (stereo not shown) | 6.38%

Compound | hERG current change (%, negative = inhibition) at 1uM
C1CCC2S[C@H]3CCCCC3NC2C1 (stereo partly shown) | 8.84%
Fc1ccc(C2=Nn3c(nnc3-c3n[nH]c4c3CCC4)SC2)cc1 | 6.32%
O=C(COc1ccc([N+](=O)[O-])cc1)NCc1cccnc1 | 2.13%
CCOCCn1c(=NC(=O)/C=C/c2ccccc2Cl)sc2cc(NC(C)=O)ccc21 | 4.91%
O=C(NCc1ccco1)c1ccc2c(=O)n(-c3ccccc3)c(=O)n(Cc3cccc(F)c3)c2c1 | 3.64%
COc1cc(NC(=S)NC(C)=O)ccc1NC(=O)C(C)C | 3.5%
COc1ccc([N+](=O)[O-])cc1C(=O)C(=O)c1ccccc1 | 10.6%
CC(C)N(Cc1nc2ccccc2[nH]1)C(C)C | 11.6%
CC(C)(C)C(C(=O)O)N1CCS(=O)(=O)CC1 (stereo not shown) | 13.4%
CCCC(=O)Nc1ccc(C(=O)N/N=C/c2cccnc2)cc1 | 3.39%
CCOC(=O)Cc1csc(NC(=O)NC2(C(F)(F)F)Oc3ccccc3O2)n1 | 5.01%
COc1ccc(/C=N/NC(=O)c2ccc(N(C)S(=O)(=O)c3ccccc3)cc2)c(OC)c1 | 4.6%
C#CC[N+](C)(C)CC#Cc1ccc(Cl)cc1.[Br-] | 7.44%
O=C(NNC(=O)c1cccs1)c1ccncc1 | 16%
CCOc1ccccc1NC(=O)CCc1ccc(C)o1 | 4.34%
CS(=O)(=O)c1ccc2nc(NC(=O)CCC(=O)c3cccs3)sc2c1 | 3.84%
CCOc1ccc(-n2c(-c3ccccc3)c[nH]c2=S)cc1 | 16.6%
CCOC(=O)c1cnc(Nc2nc3ccccc3o2)nc1CSC(=S)N(CC)CC | 13.8%
Cc1cc(C)n(-c2cc(C(C)(C)C)nc3c(-c4ccccc4)cnn23)n1 | 14.4%
O=C(CSc1nc(-c2ccccc2Cl)ns1)Nc1ccc2c(c1)OCO2 | 8.94%
CCOC(=O)C1(Cc2ccccc2C)CCCN(C(=O)CCC(=O)OC)C1 (stereo not shown) | 7.66%
CCOCCCNC(=O)C(NC(=O)Cc1cccs1)c1ccc(C)cc1 (stereo not shown) | 9.42%
